{
  "source": "paper PMC9911399",
  "about": "“Two distinct binding modes provide the RNA-binding protein RbFox with extraordinary sequence specificity”",
  "binders": {"B1": {"name": "UGCUUGU (DNA:RNA)", "RNA": "GGGAGACCGGAAUUCAGAUUGUCCUGCUUGUUUAAAUCCCGUCGUAGCCACCA", "DNA 1": "CAATCTGAATTCCGGTCTCCC", "DNA 2": "TGGTGGCTACGACGGGATT"}, "B2": {"name": "ACACAUU (DNA:RNA)", "RNA": "B1 RNA with U25A, G26C, C27A, U28C, U29A, G30U", "DNA 1": "CAATCTGAATTCCGGTCTCCC", "DNA 2": "TGGTGGCTACGACGGGATT"}, "B3": {"name": "GUGGACA (DNA:RNA)", "RNA": "GGGAGACCGGAAUUCAGAUUGUCCGUGGACAUUAAAUCCCGUCGUAGCCACCA", "DNA 1": "CAATCTGAATTCCGGTCTCCC", "DNA 2": "TGGTGGCTACGACGGGATT"}, "B4": {"name": "UCUACCA (DNA:RNA)", "RNA": "B3 RNA with G25U, U26C, G27U, G28A, A29C", "DNA 1": "CAATCTGAATTCCGGTCTCCC", "DNA 2": "TGGTGGCTACGACGGGATT"}, "B5": {"name": "AUGUCCG (DNA:RNA)", "RNA": "B3 RNA with G25A, G28U, A29C, A31G", "DNA 1": "CAATCTGAATTCCGGTCTCCC", "DNA 2": "TGGTGGCTACGACGGGATT"}, "B6": {"name": "CUCUCAA (DNA:RNA)", "RNA": "B3 RNA with G25C, G27C, G28U, A29C, C30A", "DNA 1": "CAATCTGAATTCCGGTCTCCC", "DNA 2": "TGGTGGCTACGACGGGATT"}, "B7": {"name": "UCGACUC (DNA:RNA)", "RNA": "B3 RNA with G25U, U26C, G28A, A29C, C30U, A31C", "DNA 1": "CAATCTGAATTCCGGTCTCCC", "DNA 2": "TGGTGGCTACGACGGGATT"}, "B8": {"name": "AGGAAUU (DNA:RNA)", "RNA": "B3 RNA with G25A, U26G, G28A, C30U, A31U", "DNA 1": "CAATCTGAATTCCGGTCTCCC", "DNA 2": "TGGTGGCTACGACGGGATT"}, "B9": {"name": "UGUUUAU (DNA:RNA)", "RNA": "B1 RNA with C27U, G30A", "DNA 1": "CAATCTGAATTCCGGTCTCCC", "DNA 2": "TGGTGGCTACGACGGGATT"}, "B10": {"name": "CGCGCCA (DNA:RNA)", "RNA": "B3 RNA with G25C, U26G, G27C, A29C", "DNA 1": "CAATCTGAATTCCGGTCTCCC", "DNA 2": "TGGTGGCTACGACGGGATT"}, "B11": {"name": "AUUGGGG (DNA:RNA)", "RNA": "B3 RNA with G25A, G27U, A29G, C30G, A31G", "DNA 1": "CAATCTGAATTCCGGTCTCCC", "DNA 2": "TGGTGGCTACGACGGGATT"}, "B12": {"name": "UGCAUGC (DNA:RNA)", "RNA": "B1 RNA with U28A, U31C", "DNA 1": "CAATCTGAATTCCGGTCTCCC", "DNA 2": "TGGTGGCTACGACGGGATT"}, "B13": {"name": "UUGGCUA (DNA:RNA)", "RNA": "B3 RNA with G25U, A29C, C30U", "DNA 1": "CAATCTGAATTCCGGTCTCCC", "DNA 2": "TGGTGGCTACGACGGGATT"}, "B14": {"name": "GUAACCA (DNA:RNA)", "RNA": "B3 RNA with G27A, G28A, A29C", "DNA 1": "CAATCTGAATTCCGGTCTCCC", "DNA 2": "TGGTGGCTACGACGGGATT"}, "B15": {"name": "AGAGCAA (DNA:RNA)", "RNA": "B3 RNA with G25A, U26G, G27A, A29C, C30A", "DNA 1": "CAATCTGAATTCCGGTCTCCC", "DNA 2": "TGGTGGCTACGACGGGATT"}, "B16": {"name": "GUGAUAC (DNA:RNA)", "RNA": "B3 RNA with G28A, A29U, C30A, A31C", "DNA 1": "CAATCTGAATTCCGGTCTCCC", "DNA 2": "TGGTGGCTACGACGGGATT"}, "B17": {"name": "AAACCGG (DNA:RNA)", "RNA": "B1 RNA with U25A, G26A, C27A, U28C, U29C, U31G", "DNA 1": "CAATCTGAATTCCGGTCTCCC", "DNA 2": "TGGTGGCTACGACGGGATT"}, "B18": {"name": "UUAAGUU (DNA:RNA)", "RNA": "B1 RNA with G26U, C27A, U28A, U29G, G30U", "DNA 1": "CAATCTGAATTCCGGTCTCCC", "DNA 2": "TGGTGGCTACGACGGGATT"}, "B19": {"name": "CCGGGGU (DNA:RNA)", "RNA": "B3 RNA with G25C, U26C, A29G, C30G, A31U", "DNA 1": "CAATCTGAATTCCGGTCTCCC", "DNA 2": "TGGTGGCTACGACGGGATT"}, "B20": {"name": "UCCACAC (DNA:RNA)", "RNA": "B1 RNA with G26C, U28A, U29C, G30A, U31C", "DNA 1": "CAATCTGAATTCCGGTCTCCC", "DNA 2": "TGGTGGCTACGACGGGATT"}, "B21": {"name": "AGUGUUC (DNA:RNA)", "RNA": "B1 RNA with U25A, C27U, U28G, G30U, U31C", "DNA 1": "CAATCTGAATTCCGGTCTCCC", "DNA 2": "TGGTGGCTACGACGGGATT"}, "B22": {"name": "GUGUCCU (DNA:RNA)", "RNA": "B3 RNA with G28U, A29C, A31U", "DNA 1": "CAATCTGAATTCCGGTCTCCC", "DNA 2": "TGGTGGCTACGACGGGATT"}, "B23": {"name": "UAGUGUC (DNA:RNA)", "RNA": "B1 RNA with G26A, C27G, U29G, G30U, U31C", "DNA 1": "CAATCTGAATTCCGGTCTCCC", "DNA 2": "TGGTGGCTACGACGGGATT"}, "B24": {"name": "GUCACCU (DNA:RNA)", "RNA": "B3 RNA with G27C, G28A, A29C, A31U", "DNA 1": "CAATCTGAATTCCGGTCTCCC", "DNA 2": "TGGTGGCTACGACGGGATT"}, "B25": {"name": "AAGUGAC (DNA:RNA)", "RNA": "B3 RNA with G25A, U26A, G28U, A29G, C30A, A31C", "DNA 1": "CAATCTGAATTCCGGTCTCCC", "DNA 2": "TGGTGGCTACGACGGGATT"}, "B26": {"name": "UGUAUGC (DNA:RNA)", "RNA": "B1 RNA with C27U, U28A, U31C", "DNA 1": "CAATCTGAATTCCGGTCTCCC", "DNA 2": "TGGTGGCTACGACGGGATT"}, "B27": {"name": "GACUGUU (DNA:RNA)", "RNA": "B1 RNA with U25G, G26A, U29G, G30U", "DNA 1": "CAATCTGAATTCCGGTCTCCC", "DNA 2": "TGGTGGCTACGACGGGATT"}, "B28": {"name": "CCUUGUU (DNA:RNA)", "RNA": "B1 RNA with U25C, G26C, C27U, U29G, G30U", "DNA 1": "CAATCTGAATTCCGGTCTCCC", "DNA 2": "TGGTGGCTACGACGGGATT"}, "B29": {"name": "UAAUAGU (DNA:RNA)", "RNA": "B1 RNA with G26A, C27A, U29A", "DNA 1": "CAATCTGAATTCCGGTCTCCC", "DNA 2": "TGGTGGCTACGACGGGATT"}, "B30": {"name": "CCCGUGG (DNA:RNA)", "RNA": "B1 RNA with U25C, G26C, U28G, U31G", "DNA 1": "CAATCTGAATTCCGGTCTCCC", "DNA 2": "TGGTGGCTACGACGGGATT"}, "B31": {"name": "CAUAUAG (DNA:RNA)", "RNA": "B1 RNA with U25C, G26A, C27U, U28A, G30A, U31G", "DNA 1": "CAATCTGAATTCCGGTCTCCC", "DNA 2": "TGGTGGCTACGACGGGATT"}},
  "note": "Changes are numbered by the printed parent chain; changes in the protein carry UniProt numbers. Some of the results follow.",
  "data": [
    {"biological_target": "T1, RBFOX1 RRM (Homo sapiens, UniProt Q9NWB1 109-208)", "T1 sequence": "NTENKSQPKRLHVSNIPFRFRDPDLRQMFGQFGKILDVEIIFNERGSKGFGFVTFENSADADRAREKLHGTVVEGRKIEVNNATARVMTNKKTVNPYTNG", "assay": "EMSA; HiTS-Eq, 1 nM pool, 10 min; buffer printed only for the single-RNA assays: 10 mM Tris pH 7.5, 150 mM NaCl, 3.4 mM EDTA, 0.001% NP-40, 30 C", "conditions": "tags: His6 N-terminal (pET28a); label: 5' 32P", "method_in_brief": "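Purified RbFox RRM (wild type or mutant) was equilibrated for 10 min in 50 µL with 1 nM of a 5′-radiolabelled pool of RNA with 7 randomized nucleotides, its flanks annealed to DNA oligonucleotides, across increasing protein concentrations. Free RNA was separated by 8% native PAGE, excised, reverse-transcribed, PCR-barcoded and sequenced on an Illumina HiSeq 2500. Relative association constants came from read-count changes of each variant against the control reaction, normalised to the cognate motif.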", "values": [
      {"binder": "B1", "binding signal": "0.0532 KA relative to UGCAUGU"},
      {"binder": "B2", "binding signal": "0.000256 KA relative to UGCAUGU"},
      {"binder": "B3", "binding signal": "0.00586 KA relative to UGCAUGU"},
      {"binder": "B4", "binding signal": "0.00171 KA relative to UGCAUGU"},
      {"binder": "B5", "binding signal": "0.00957 KA relative to UGCAUGU"},
      {"binder": "B6", "binding signal": "0.00218 KA relative to UGCAUGU"},
      {"binder": "B7", "binding signal": "0.0155 KA relative to UGCAUGU"},
      {"binder": "B8", "binding signal": "0.0135 KA relative to UGCAUGU"},
      {"binder": "B9", "binding signal": "0.0145 KA relative to UGCAUGU"},
      {"binder": "B10", "binding signal": "0.00401 KA relative to UGCAUGU"},
      {"binder": "B11", "binding signal": "0.00842 KA relative to UGCAUGU"},
      {"binder": "B12", "binding signal": "1.02 KA relative to UGCAUGU"},
      {"binder": "B13", "binding signal": "0.0186 KA relative to UGCAUGU"},
      {"binder": "B14", "binding signal": "0.00327 KA relative to UGCAUGU"},
      {"binder": "B15", "binding signal": "0.0024 KA relative to UGCAUGU"},
      {"binder": "B16", "binding signal": "0.00876 KA relative to UGCAUGU"},
      {"binder": "B17", "binding signal": "0.00512 KA relative to UGCAUGU"},
      {"binder": "B18", "binding signal": "0.0109 KA relative to UGCAUGU"},
      {"binder": "B19", "binding signal": "0.0122 KA relative to UGCAUGU"},
      {"binder": "B20", "binding signal": "0.00248 KA relative to UGCAUGU"},
      {"binder": "B21", "binding signal": "0.0148 KA relative to UGCAUGU"},
      {"binder": "B22", "binding signal": "0.0156 KA relative to UGCAUGU"},
      {"binder": "B23", "binding signal": "0.0181 KA relative to UGCAUGU"},
      {"binder": "B24", "binding signal": "0.00621 KA relative to UGCAUGU"},
      {"binder": "B25", "binding signal": "0.00446 KA relative to UGCAUGU"},
      {"binder": "B26", "binding signal": "0.0374 KA relative to UGCAUGU"},
      {"binder": "B27", "binding signal": "0.023 KA relative to UGCAUGU"},
      {"binder": "B28", "binding signal": "0.0109 KA relative to UGCAUGU"},
      {"binder": "B29", "binding signal": "0.0101 KA relative to UGCAUGU"},
      {"binder": "B30", "binding signal": "0.00465 KA relative to UGCAUGU"},
      {"binder": "B31", "binding signal": "0.0033 KA relative to UGCAUGU"}
    ]}
  ]
}
